Test results published in PubChem BioAssay AID2546 (National Center for Advancing Translational Sciences (NCATS), 2010).
Values joined by “and” are separate entries in the source; they are usually repeats but may differ in a detail not shown here. Equal entries are not always repeated. The campaign covered roughly 310,000 compounds. About 11,000 (3.5%) were called active. Inconclusive means that the source gave no clear call. Such entries were picked first, then a sample of the others. Calls follow the shape of the dose curve; as a rule, active = well fitted inhibition curve with a large enough effect; inconclusive = small, poorly fitted or top-dose-only effect, or effect the other way; inactive = flat fitted curve, though single readings scatter. A potency beside an inconclusive call is a rough fit, not a confirmed value.

assay: VP16 counterscreen qHTS for inhibitors of ROR gamma transcriptional activity; settings: Drosophila S2 Gal4-VP16 UAS-luciferase, luminescence, 20 h; activity, negative = inhibition: at 53.6 µM (top of the series);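 also: Gal4-VP16 expression switched on by copper sulfate through the metallothionein promoter; nearly all actives have a fitted effect of over 50% in size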
% is scaled to controls: 0 for no effect and ±100 for the full control effect; potency is read from the fitted curve at half-maximal effect; tags tell the direction and shape of the fitted curve.

| Compound | Potency | activity, negative = inhibition |
| --- | --- | --- |
| COc1ccccc1C(=O)NCCOc1ccc(C)c(C)c1 | inconclusive: 11.2 µM [activator, single point] | – |
| COc1ccc(CCNC(=S)N2CCN(S(=O)(=O)c3ccccc3F)CC2)cc1 | inconclusive: 35.5 µM [inhibitor, single point] | – |
| CNCCCC12CCC(c3ccccc31)c1ccccc12 | inconclusive: 28.2 µM [inhibitor, partial curve] and inconclusive: 11.2 µM [inhibitor, single point] | – |
| CC(C)(C)NC(=O)C(c1ccccn1)N(C(=O)c1csnn1)C1CCCCC1 (stereo unspecified) | – | inactive: -14.1% |
| COc1c(O)cc2oc(-c3ccc(O)cc3)cc(=O)c2c1O | inconclusive: 35.5 µM [inhibitor, single point] | – |
| Cc1c(Cl)cccc1NC(=O)C(=O)NNC(=O)c1ccccc1F | inconclusive: 35.5 µM [inhibitor, single point] | – |
| CCc1ccccc1N(CC(=O)NCc1ccco1)C(=O)CCC(=O)Nc1nccs1 | – | inactive: 1.42% |
| CCn1c(-c2cc(Cl)ccc2OC)n[nH]c1=S | inconclusive: 17.8 µM [inhibitor, single point] | – |
| CC(Sc1nc2sc3c(c2c(=O)n1-c1ccccc1)CCCC3)C(=O)O (stereo unspecified) | – | inactive: -6.47% |
| O=C(Nc1ccc(CN2CCOCC2)cc1)c1cc2ccccn2n1 | active: 20 µM | – |
| O=C(NCc1nnc2c(C(F)(F)F)cc(Cl)cn12)C1CCCC1 | – | inactive: 4.26% |
| CCOC(=O)C1CCN(C(=O)c2ccc3c(Cl)c4c(nc3c2)CCCC4)CC1 | inconclusive: 35.5 µM [inhibitor, single point] | – |
| Cc1cccc(CNc2ncncc2-c2cccc(NS(C)(=O)=O)c2)c1 | – | inactive: 1.45% |
| CNC(=O)N(O)C1N(/N=C/c2ccccc2O)C(=S)SC1(C)C (stereo unspecified) | inconclusive: 10 µM [inhibitor, partial curve] | – |
| O=c1[nH]c(/C(=N\O)c2ccccc2)no1 | inconclusive: 4.47 µM [inhibitor, partial curve] | – |
| O=C(Cn1cc2c(n1)CCCCC2)NC1CCCCCC1 | inconclusive: 15.8 µM [activator, single point] | – |
| c1ccc(Nc2nc(-c3ccccn3)cs2)cc1 | active: 10 µM | – |
| Cc1cccc(-n2ncc3c2CCCC3NC(=O)Cc2c(C)noc2C)c1C (stereo unspecified) | active: 10 µM | – |
| Cc1csc(NC(=O)COCC(=O)O)c1-c1nc2ccccc2s1 | – | inactive: -27.5% |
| C=CCN(CC=C)Cc1c(C)[nH]c2c(C)c(C)ccc2c1=O | active: 12.6 µM | – |
| CCNC(=O)C(=O)N/N=C/c1cc([N+](=O)[O-])ccc1O | inconclusive: 35.5 µM [inhibitor, single point] | – |
